{"source": "the supplement of paper PMC8728848", "binders": {"B1": {"name": "AFL (Aspergillus fumigatus), Q4WW81 (protein)", "chain": "STPGAQQVLFRTGIAAVNLTNHLRVYFQDVYGSIRESLYEGSWANGTEKNVIGNAKLGSPVAATSKELKHIRVYTLTEGNTLQEFAYDSGTGWYNGGLGGAKFQVAPYSRIAAVFLAGTDALQLRIYAQKPDNTIQEYMWNGDGWKEGTNLGGALPGTGIGATSFRYTDYNGPSIRIWFQTDDLKLVQRAYDPHKGWYPDLVTIFDRAPPRTAIAATSFGAGNSSIYMRIYFVNSDNTIWQVCWDHGKGYHDKGTITPVIQGSEVAIISWGSFANNGPDLRLYFQNGTYISAVSEWVWNRAHGSQLGRSALPPA"}}, "experiment_in_all_cases": "glycan array binding signal (z-score within array); higher = stronger binding", "conditions_in_all_cases": "glycan notation: IUPAC condensed, linker removed", "key": {"[1]": {"molecular_target": "Neu5Ac(a2-6)Gal(b1-4)GlcNAc(b1-2)Man(a1-6)[GlcNAc(b1-2)Man(a1-3)]Man(b1-4)GlcNAc(b1-4)GlcNAc", "in_short": "(§1)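 Negative Z-scores can be read as non-binding. The Z-score is calculated within each array and then averaged across arrays of one protein sequence at different concentrations or buffers and across linkers. Arrays, 3228 in all, were curated from the Consortium for Functional Glycomics database and kept only where the protein sequence was available.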"}, "[2]": {"molecular_target": "Neu5Ac(a2-6)Gal(b1-4)GlcNAc(b1-2)Man(a1-6)[Man(a1-3)]Man(b1-4)GlcNAc(b1-4)GlcNAc", "in_short": "as §1"}, "[3]": {"molecular_target": "Neu5Ac(a2-6)Gal(b1-4)GlcNAc(b1-3)Gal(b1-3)GlcNAc", "in_short": "as §1"}, "[4]": {"molecular_target": "Neu5Ac(a2-6)Gal(b1-4)GlcNAc(b1-3)Gal(b1-4)GlcNAc", "in_short": "as §1"}, "[5]": {"molecular_target": "Neu5Ac(a2-6)Gal(b1-4)GlcNAc(b1-3)Gal(b1-4)GlcNAc(b1-3)Gal(b1-4)GlcNAc", "in_short": "as §1"}, "[6]": {"molecular_target": "Neu5Ac(a2-6)Gal(b1-4)GlcNAc(b1-3)Gal(b1-4)[Fuc(a1-3)]GlcNAc(b1-3)Gal(b1-4)[Fuc(a1-3)]GlcNAc", "in_short": "as §1"}, "[7]": {"molecular_target": "Neu5Ac(a2-6)Gal(b1-4)GlcNAc(b1-3)GalNAc", "in_short": "as §1"}, "[8]": {"molecular_target": "Neu5Ac(a2-6)Gal(b1-4)GlcNAc6S", "in_short": "as §1"}, "[9]": {"molecular_target": "Neu5Ac(a2-6)GalNAc", "in_short": "as §1"}, "[10]": {"molecular_target": "Neu5Ac(a2-6)GalNAc(b1-4)GlcNAc", "in_short": "as §1"}, "[11]": {"molecular_target": "Neu5Ac(a2-6)GlcNAc(b1-4)GlcNAc", "in_short": "as §1"}, "[12]": {"molecular_target": "Neu5Ac(a2-6)GlcNAc(b1-4)GlcNAc(b1-4)GlcNAc", "in_short": "as §1"}, "[13]": {"molecular_target": "Neu5Ac(a2-8)Neu5Ac", "in_short": "as §1"}, "[14]": {"molecular_target": "Neu5Ac(a2-8)Neu5Ac(a2-3)Gal(b1-3)GalNAc(b1-4)[Neu5Ac(a2-8)Neu5Ac(a2-3)]Gal(b1-4)Glc", "in_short": "as §1"}, "[15]": {"molecular_target": "Neu5Ac(a2-8)Neu5Ac(a2-3)Gal(b1-4)Glc", "in_short": "as §1"}, "[16]": {"molecular_target": "Neu5Ac(a2-8)Neu5Ac(a2-3)[Gal(b1-3)GalNAc(b1-4)]Gal(b1-4)Glc", "in_short": "as §1"}, "[17]": {"molecular_target": "Neu5Ac(a2-8)Neu5Ac(a2-3)[GalNAc(b1-4)]Gal(b1-4)Glc", "in_short": "as §1"}, "[18]": {"molecular_target": "Neu5Ac(a2-8)Neu5Ac(a2-8)Neu5Ac", "in_short": "as §1"}, "[19]": {"molecular_target": "Neu5Ac(a2-8)Neu5Ac(a2-8)Neu5Ac(a2-3)Gal(b1-4)Glc", "in_short": "as §1"}, "[20]": {"molecular_target": "Neu5Ac(a2-8)Neu5Ac(a2-8)Neu5Ac(a2-3)[GalNAc(b1-4)]Gal(b1-4)Glc", "in_short": "as §1"}, "[21]": {"molecular_target": "Neu5Ac(a2-8)Neu5Ac(a2-8)Neu5Ac(a2-8)Neu5Ac(a2-3)[GalNAc(b1-4)]Gal(b1-4)Glc", "in_short": "as §1"}, "[22]": {"molecular_target": "Neu5Ac(b2-6)Gal(b1-4)GlcNAc", "in_short": "as §1"}, "[23]": {"molecular_target": "Neu5Ac(b2-6)GalNAc", "in_short": "as §1"}, "[24]": {"molecular_target": "Neu5Ac9Ac(a2-3)Gal(b1-3)GlcNAc", "in_short": "as §1"}, "[25]": {"molecular_target": "Neu5Ac9Ac(a2-3)Gal(b1-4)GlcNAc", "in_short": "as §1"}, "[26]": {"molecular_target": "Neu5Ac9Ac(a2-6)Gal(b1-4)GlcNAc", "in_short": "as §1"}, "[27]": {"molecular_target": "Neu5Gc(a2-3)Gal(b1-3)GlcNAc", "in_short": "as §1"}, "[28]": {"molecular_target": "Neu5Gc(a2-3)Gal(b1-3)[Fuc(a1-4)]GlcNAc", "in_short": "as §1"}, "[29]": {"molecular_target": "Neu5Gc(a2-3)Gal(b1-4)Glc", "in_short": "as §1"}, "[30]": {"molecular_target": "Neu5Gc(a2-3)Gal(b1-4)GlcNAc", "in_short": "as §1"}, "[31]": {"molecular_target": "Neu5Gc(a2-3)Gal(b1-4)[Fuc(a1-3)]GlcNAc", "in_short": "as §1"}, "[32]": {"molecular_target": "Neu5Gc(a2-6)Gal(b1-4)GlcNAc", "in_short": "as §1"}, "[33]": {"molecular_target": "Neu5Gc(a2-6)GalNAc", "in_short": "as §1"}, "[34]": {"molecular_target": "Neu5Gc(b2-6)Gal(b1-4)GlcNAc", "in_short": "as §1"}}, "note": "The list shows a part of the results.", "data": [{"binder": "B1", "values": [{"measurement": "glycan array binding signal (z-score)", "setting": "[1]", "value": -0.378}, {"measurement": "glycan array binding signal (z-score)", "setting": "[2]", "value": -0.387}, {"measurement": "glycan array binding signal (z-score)", "setting": "[3]", "value": -0.381}, {"measurement": "glycan array binding signal (z-score)", "setting": "[4]", "value": -0.377}, {"measurement": "glycan array binding signal (z-score)", "setting": "[5]", "value": -0.378}, {"measurement": "glycan array binding signal (z-score)", "setting": "[6]", "value": 0.087}, {"measurement": "glycan array binding signal (z-score)", "setting": "[7]", "value": -0.378}, {"measurement": "glycan array binding signal (z-score)", "setting": "[8]", "value": -0.376}, {"measurement": "glycan array binding signal (z-score)", "setting": "[9]", "value": -0.383}, {"measurement": "glycan array binding signal (z-score)", "setting": "[10]", "value": -0.383}, {"measurement": "glycan array binding signal (z-score)", "setting": "[11]", "value": -0.386}, {"measurement": "glycan array binding signal (z-score)", "setting": "[12]", "value": -0.385}, {"measurement": "glycan array binding signal (z-score)", "setting": "[13]", "value": -0.391}, {"measurement": "glycan array binding signal (z-score)", "setting": "[14]", "value": -0.363}, {"measurement": "glycan array binding signal (z-score)", "setting": "[15]", "value": -0.383}, {"measurement": "glycan array binding signal (z-score)", "setting": "[16]", "value": -0.38}, {"measurement": "glycan array binding signal (z-score)", "setting": "[17]", "value": -0.389}, {"measurement": "glycan array binding signal (z-score)", "setting": "[18]", "value": -0.378}, {"measurement": "glycan array binding signal (z-score)", "setting": "[19]", "value": -0.389}, {"measurement": "glycan array binding signal (z-score)", "setting": "[20]", "value": -0.39}, {"measurement": "glycan array binding signal (z-score)", "setting": "[21]", "value": -0.379}, {"measurement": "glycan array binding signal (z-score)", "setting": "[22]", "value": -0.388}, {"measurement": "glycan array binding signal (z-score)", "setting": "[23]", "value": -0.384}, {"measurement": "glycan array binding signal (z-score)", "setting": "[24]", "value": -0.381}, {"measurement": "glycan array binding signal (z-score)", "setting": "[25]", "value": -0.393}, {"measurement": "glycan array binding signal (z-score)", "setting": "[26]", "value": -0.389}, {"measurement": "glycan array binding signal (z-score)", "setting": "[27]", "value": -0.378}, {"measurement": "glycan array binding signal (z-score)", "setting": "[28]", "value": -0.011}, {"measurement": "glycan array binding signal (z-score)", "setting": "[29]", "value": -0.377}, {"measurement": "glycan array binding signal (z-score)", "setting": "[30]", "value": -0.384}, {"measurement": "glycan array binding signal (z-score)", "setting": "[31]", "value": -0.075}, {"measurement": "glycan array binding signal (z-score)", "setting": "[32]", "value": -0.385}, {"measurement": "glycan array binding signal (z-score)", "setting": "[33]", "value": -0.388}, {"measurement": "glycan array binding signal (z-score)", "setting": "[34]", "value": -0.389}]}]}
